The entries are a selection whose mix differs from that of the whole data set. The list includes weakly bound sequences.

This assay deals with T1, GST-Co-NF-kB (UniProt F1ARL5).
T1 sequence: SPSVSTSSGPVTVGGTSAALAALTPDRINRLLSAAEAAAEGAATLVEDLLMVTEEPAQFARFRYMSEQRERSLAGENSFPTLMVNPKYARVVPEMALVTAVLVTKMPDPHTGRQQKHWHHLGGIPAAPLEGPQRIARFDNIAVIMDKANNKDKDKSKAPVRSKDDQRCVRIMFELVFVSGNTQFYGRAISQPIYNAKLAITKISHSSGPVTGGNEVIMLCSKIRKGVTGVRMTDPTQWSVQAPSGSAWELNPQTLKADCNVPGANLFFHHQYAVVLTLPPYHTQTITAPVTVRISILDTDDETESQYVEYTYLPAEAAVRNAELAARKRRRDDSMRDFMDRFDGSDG
As to the kind of experiment: protein-binding microarray (PBM). The following applies: PBM: ~300 nM protein, 6 mM HEPES pH 7.8, 80 mM KCl, 0.5 mM EDTA, 0.5 mM EGTA, 6% glycerol, 35 ng/ul poly-dIdC, 1% milk, 1 h, room temperature; Ap Aiptasia and Nv Nematostella (sea anemones) / Co Capsaspora / Aq Amphimedon (sponge) / Dm Drosophila / Hu human; RHD is the Rel homology domain; high values mean tight binding; most listed sequences are background and not binding sites; double strand, one strand shown.
In the case of “CCGATTAACATCACCCACTTCCCTGATGTTAATCGGGTCTTGATTCGCTTGACGCTGCTG”, the binding signal is 1.4 z-score. To “CCGATTAACATCAGAGTATTCCCTGATGTTAATCGGGTCTTGATTCGCTTGACGCTGCTG” belongs 2.71 z-score.

Take “CCGATTAACATCAGTTGTCCCGCTGATGTTAATCGGGTCTTGATTCGCTTGACGCTGCTG”: the binding signal worked out at 0.719 z-score. Next, “CCGATTAACATCATGGGGACGACTGATGTTAATCGGGTCTTGATTCGCTTGACGCTGCTG”: 2.39 z-score. “CCGATTAACATCAAGGGGTTTCCTGATGTTAATCGGGTCTTGATTCGCTTGACGCTGCTG” yielded a binding signal of 0.91 z-score. “CCGATTAACATCAAAAAATCACCTGATGTTAATCGGGTCTTGATTCGCTTGACGCTGCTG” registered a binding signal of 1 z-score. Next, “CCGATTAACATCAGATATTACCCTGATGTTAATCGGGTCTTGATTCGCTTGACGCTGCTG”: 2.75 z-score.

In the case of “CCGATTAACATCAGGTAATTTTATGATGTTAATCGGGTCTTGATTCGCTTGACGCTGCTG”, the binding signal was 0.641 z-score. For “CCGATTAACATCATGCCCGGGAATGATGTTAATCGGGTCTTGATTCGCTTGACGCTGCTG”, the binding signal amounted to 3.51 z-score. In turn, “CCGATTAACATCAAGTTTTCCCCTGATGTTAATCGGGTCTTGATTCGCTTGACGCTGCTG” came in with a binding signal of 10.3 z-score.

Turning to “CCGATTAACATCAGAAAAATCCCTGATGTTAATCGGGTCTTGATTCGCTTGACGCTGCTG”, the binding signal amounted to 2.27 z-score. “CCGATTAACATCAGTCCCTAAGCTGATGTTAATCGGGTCTTGATTCGCTTGACGCTGCTG” came in with a binding signal of -0.173 z-score.

Take “CCGATTAACATCAGGGAAAGGAATGATGTTAATCGGGTCTTGATTCGCTTGACGCTGCTG”: the binding signal amounted to 1.48 z-score. For “CCGATTAACATCAAAGATTTCCCTGATGTTAATCGGGTCTTGATTCGCTTGACGCTGCTG”, the binding signal was 4.84 z-score. The sequence “CCGATTAACATCACGGGGAAATCTGATGTTAATCGGGTCTTGATTCGCTTGACGCTGCTG” registered a binding signal of 10.1 z-score. Sequence “CCGATTAACATCAATCCTCCCCCTGATGTTAATCGGGTCTTGATTCGCTTGACGCTGCTG” registered a binding signal of 8.24 z-score.

As for “CCGATTAACATCATCCCTCCCCATGATGTTAATCGGGTCTTGATTCGCTTGACGCTGCTG”, the binding signal is 3.09 z-score. With “CCGATTAACATCAGGGGGGGATATGATGTTAATCGGGTCTTGATTCGCTTGACGCTGCTG”, the binding signal is 5.9 z-score. “CCGATTAACATCAGCAAATCCCCTGATGTTAATCGGGTCTTGATTCGCTTGACGCTGCTG” yielded a binding signal of 2.93 z-score. Regarding “CCGATTAACATCAAGGGAAATTCTGATGTTAATCGGGTCTTGATTCGCTTGACGCTGCTG”, the binding signal is 4.57 z-score.

For the sequence “CCGATTAACATCACGGGATTTCGTGATGTTAATCGGGTCTTGATTCGCTTGACGCTGCTG”, the binding signal worked out at 0.549 z-score. In turn, “CCGATTAACATCAAAATCTCCCCTGATGTTAATCGGGTCTTGATTCGCTTGACGCTGCTG” had a binding signal of 7.3 z-score.

As for “CCGATTAACATCAAGGGACTTTCTGATGTTAATCGGGTCTTGATTCGCTTGACGCTGCTG”, the binding signal turned out to be 0.991 z-score. Sequence “CCGATTAACATCAAATCTCCCCCTGATGTTAATCGGGTCTTGATTCGCTTGACGCTGCTG” displayed a binding signal of 10.1 z-score. As for “CCGATTAACATCAGGAACGTCCCTGATGTTAATCGGGTCTTGATTCGCTTGACGCTGCTG”, the binding signal was -0.167 z-score. In turn, “CCGATTAACATCAGAAATCCCGCTGATGTTAATCGGGTCTTGATTCGCTTGACGCTGCTG” yielded a binding signal of 1.57 z-score.

On to “CCGATTAACATCATGGTGGGAAATGATGTTAATCGGGTCTTGATTCGCTTGACGCTGCTG”, for which the binding signal stood at 2.94 z-score. As to “CCGATTAACATCAAGGGCTTCCCTGATGTTAATCGGGTCTTGATTCGCTTGACGCTGCTG”, the binding signal was 0.641 z-score. With “CCGATTAACATCAACAAAGTCCCTGATGTTAATCGGGTCTTGATTCGCTTGACGCTGCTG”, the binding signal is 0.949 z-score. In the case of “CCGATTAACATCAAAAAAATACCTGATGTTAATCGGGTCTTGATTCGCTTGACGCTGCTG”, the binding signal worked out at 0.433 z-score. Sequence “CCGATTAACATCATAGTCCCATGTGATGTTAATCGGGTCTTGATTCGCTTGACGCTGCTG” showed a binding signal of -0.199 z-score. On to “CCGATTAACATCAGGGGATTGTATGATGTTAATCGGGTCTTGATTCGCTTGACGCTGCTG”, for which the binding signal turned out to be 3.04 z-score.

In turn, “CCGATTAACATCAGAAAAACACCTGATGTTAATCGGGTCTTGATTCGCTTGACGCTGCTG” gave a binding signal of 0.354 z-score. For “CCGATTAACATCAAGGGGGGGATTGATGTTAATCGGGTCTTGATTCGCTTGACGCTGCTG”, the binding signal was 4.35 z-score. On to “CCGATTAACATCAGGGGGCTTTATGATGTTAATCGGGTCTTGATTCGCTTGACGCTGCTG”, for which the binding signal was determined as 1.85 z-score. Next, “CCGATTAACATCAACGTGGGAAATGATGTTAATCGGGTCTTGATTCGCTTGACGCTGCTG”: 2.91 z-score; “CCGATTAACATCACGGTATTCCCTGATGTTAATCGGGTCTTGATTCGCTTGACGCTGCTG”: 3.34 z-score.

Take “CCGATTAACATCAAGGGTTTTCCTGATGTTAATCGGGTCTTGATTCGCTTGACGCTGCTG”: the binding signal worked out at 0.633 z-score. Regarding “CCGATTAACATCAATATTTTCCCTGATGTTAATCGGGTCTTGATTCGCTTGACGCTGCTG”, the binding signal turned out to be 6.01 z-score.

The record behind these values is publication PMC5700166.
